According to PubChem BioAssay (Tox21):
This list was built around the results that the source calls inconclusive (neither active nor inactive); the mix of calls is not that of the screen. Calls of active or inactive are those of the source. Calls come from the whole dose curve; as a rule, active = well fitted activation curve with a large enough effect in the repeat runs; inconclusive = weak or mixed curves, or effect the other way; inactive = no such curve, though single readings can be large or run the other way.

What follows are compounds tested against Estrogen receptor (Homo sapiens) (UniProt P03372) (assay: qHTS assay to identify small molecule agonists of the estrogen receptor alpha (ER-alpha) signaling pathway using the BG1 cell line (AID 743079; note: nearly all actives have a fitted effect of over 20% in size)). Settings: BG1Luc4E2 cells, ERE-luciferase agonist, 22 h; activation: at 70.3 µM (top of the series) unless noted.
Chain of UniProt P03372 (P03372 whole entry, looked up): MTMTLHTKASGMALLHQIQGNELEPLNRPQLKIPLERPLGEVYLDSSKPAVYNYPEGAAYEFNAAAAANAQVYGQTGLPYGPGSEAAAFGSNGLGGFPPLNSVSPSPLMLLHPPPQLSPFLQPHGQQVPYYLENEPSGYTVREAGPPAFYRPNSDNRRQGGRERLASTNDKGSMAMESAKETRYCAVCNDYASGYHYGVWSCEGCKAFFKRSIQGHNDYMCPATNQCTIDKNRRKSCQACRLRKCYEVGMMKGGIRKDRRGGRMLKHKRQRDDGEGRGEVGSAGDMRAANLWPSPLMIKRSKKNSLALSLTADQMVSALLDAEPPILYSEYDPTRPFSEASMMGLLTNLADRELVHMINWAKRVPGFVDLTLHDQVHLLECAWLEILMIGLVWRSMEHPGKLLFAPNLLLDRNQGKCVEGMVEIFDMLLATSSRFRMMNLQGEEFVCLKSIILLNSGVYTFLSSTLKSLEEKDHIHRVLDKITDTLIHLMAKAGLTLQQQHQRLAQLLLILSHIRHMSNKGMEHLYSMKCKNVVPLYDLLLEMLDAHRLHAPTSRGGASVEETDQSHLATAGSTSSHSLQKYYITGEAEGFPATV
% is set by controls: 0 for no effect and ±100 for the full control effect.

Compound	Potency	activation
Nc1cc(Cl)c(N)c(Cl)c1	inactive	
CC1=Nc2ccc3ccccc3c2C1(C)C		inconclusive: 9.51% [phenotype inactive]
C=CCOC(=O)c1ccccc1C(=O)OCC=C		inconclusive: 5.5% [phenotype inactive]
